Measured values reported in article PMC5571105.
Where a chain is given by its changes, count along the chain named. These are yes or no findings as the source states them, for the method shown. For part of these data: Binding seen in cells or lysates may run through a third protein. Some binding calls cover weakened binding; strength is not graded here. For part of these data: Where a sequence is shown, tags or fusion partners need not be part of it.

Experiments:
OsRR10 (rice) [1] = molecular target: T1, OsRR10 (rice) (UniProt Q2QXY3); experiment: two-hybrid; S. cerevisiae AH109; bait in pGBD-C1 (GAL4 binding domain; written as target), prey in pGAD-C1 (GAL4 activation domain; written as binder); serial dilutions spotted on triple drop-out medium with 5 mM 3-AT (HIS3) and quadruple drop-out medium (ADE2), 30 °C; growth on quadruple drop-out shows strong interaction
T1 sequence: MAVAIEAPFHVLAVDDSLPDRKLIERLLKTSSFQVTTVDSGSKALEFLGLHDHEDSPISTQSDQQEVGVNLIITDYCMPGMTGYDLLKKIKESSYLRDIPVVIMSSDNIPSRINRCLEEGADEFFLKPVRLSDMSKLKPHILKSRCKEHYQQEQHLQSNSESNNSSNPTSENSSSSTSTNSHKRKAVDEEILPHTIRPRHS

OsRR10 (rice) [2] = molecular target: T1, OsRR10 (rice); experiment: two-hybrid; β-galactosidase filter lift assay (LacZ reporter) of the co-transformed yeast colonies, X-gal as substrate, 30 °C in the dark
nEYFP-OsRR10 (rice) = molecular target: T2, nEYFP-OsRR10 (rice) (UniProt Q2QXY3); experiment: split reporter; BiFC in onion epidermal peel cells, nEYFP and cEYFP fusions under the 2XCaMV35S promoter co-transformed by particle bombardment; YFP seen by confocal microscopy 12 hours post transfection; repeated three times
T2 sequence: T1 sequence

cEYFP-OsPRR1 (rice) = molecular target: T3, cEYFP-OsPRR1 (rice) (UniProt Q689G9); experiment: as above
T3 sequence: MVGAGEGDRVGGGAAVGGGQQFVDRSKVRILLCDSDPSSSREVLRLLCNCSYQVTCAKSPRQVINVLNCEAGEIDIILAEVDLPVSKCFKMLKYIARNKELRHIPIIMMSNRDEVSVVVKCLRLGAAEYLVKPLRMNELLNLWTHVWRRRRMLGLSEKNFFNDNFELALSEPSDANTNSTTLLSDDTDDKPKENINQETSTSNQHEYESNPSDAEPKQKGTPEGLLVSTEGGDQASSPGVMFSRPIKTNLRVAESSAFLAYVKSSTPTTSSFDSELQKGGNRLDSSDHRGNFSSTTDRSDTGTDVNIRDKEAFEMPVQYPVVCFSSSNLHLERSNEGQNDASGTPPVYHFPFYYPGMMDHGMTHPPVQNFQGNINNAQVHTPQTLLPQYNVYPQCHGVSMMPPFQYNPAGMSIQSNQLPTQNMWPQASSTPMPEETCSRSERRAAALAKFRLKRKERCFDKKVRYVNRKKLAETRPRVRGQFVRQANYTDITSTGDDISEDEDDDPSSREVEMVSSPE

OsRR3 (rice) = molecular target: T4, OsRR3 (rice) (UniProt Q6K9T0); experiment: two-hybrid; S. cerevisiae AH109; bait in pGBD-C1 (GAL4 binding domain; written as target), prey in pGAD-C1 (GAL4 activation domain; written as binder); serial dilutions spotted on triple drop-out medium with 5 mM 3-AT (HIS3) and quadruple drop-out medium (ADE2), 30 °C; growth on quadruple drop-out shows strong interaction
T4 sequence: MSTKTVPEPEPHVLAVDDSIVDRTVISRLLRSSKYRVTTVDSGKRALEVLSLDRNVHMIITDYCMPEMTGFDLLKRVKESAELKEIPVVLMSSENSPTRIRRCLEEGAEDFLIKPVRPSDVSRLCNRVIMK

OsRR9 (rice) = molecular target: T5, OsRR9 (rice) (UniProt Q2RAP3); experiment: as above
T5 sequence: T1 sequence with G68A, H155N, T179S

OsRR2 (rice) = molecular target: T6, OsRR2 (rice) (UniProt Q6YVX7); experiment: as above
T6 sequence: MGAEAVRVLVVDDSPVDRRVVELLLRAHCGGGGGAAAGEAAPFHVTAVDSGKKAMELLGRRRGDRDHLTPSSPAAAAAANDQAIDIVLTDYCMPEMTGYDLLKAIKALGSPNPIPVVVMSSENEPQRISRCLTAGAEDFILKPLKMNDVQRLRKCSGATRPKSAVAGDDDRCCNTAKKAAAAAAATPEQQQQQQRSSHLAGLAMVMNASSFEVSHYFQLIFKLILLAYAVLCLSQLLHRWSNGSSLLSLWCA

OsPRR1 (rice) = molecular target: T7, OsPRR1 (rice) (UniProt Q689G9); experiment: as above
T7 sequence: T3 sequence

B1: OsRR22 (protein, UniProt Q5SML5 1-696)
chain: MLLGALRMEERKGLMGRERDQFPVGMRVLAVDDDPVCLKVLETLLRRCQYHVTSTNQAITALKLLRENRDMFDLVISDVHMPDMDGFKLLELVGLEMDLPVIMLSVNGETKTVMKGITHGACDYLLKPVRIEELRNIWQHVVRRKFGNRERNNLDFSKECNKPQSADTDHGPYQPTCGSSDQNGRSSRKRKELHGEDDDEGDDNDYQENDEPSAAKKPRVVWSVELHRKFVAAVNQLGIDKAVPKRILELMNVEKLTRENVASHLQKYRLYLKRLGAVASQQASIVAAFGGRDPSFLHIGAFEGLQSYQPFAPSAALPSFNPHGLLTRTSAAAAFGLQELAAPSSTIQTSTGNVTVGHCLEENQQANLAQGLTAAIGQPQLQQNWIHQEGNGLSDVFSGSSLTNTLSSTLQRVPSSSLPPQELLECKQAKVSMPPSIRIPPSSSALLERTLGVSTNLGDSSISQQGALPIDGGFSADRLPLHSSFDGAVATKLDTSLAASQREIGQQGKFSVSMLVSPSDNLALAKNAKTGASSSGSTIILPLDTARHSDYLQFGGASNSLQKMDGQKQDHIQSSNIIWSSMPSTQLPSDTQIHNTQNQRLDSGSFNHNIGAHLADQTNASASILPQMKFDTRISEEKMKQKNTYDLGSSKLQGGFNSSGCNFDGLLNSIIKVEKDDLPFMDNELGCDLFPLGACI
- binding (OsRR10 (rice) [1]): binds
- binding (OsRR10 (rice) [2]): binds

B2: OsRR22 (BiFC fusion) (protein, UniProt Q5SML5 1-696)
chain: B1 chain
- binding (nEYFP-OsRR10 (rice)): binds

B3: nYFP-OsPRR37 (protein, UniProt Q0D3B6 1-742)
chain: MMGTAHHNQTAGSALGVGVGDANDAVPGAGGGGYSDPDGGPISGVQRPPQVCWERFIQKKTIKVLLVDSDDSTRQVVSALLRHCMYEVIPAENGQQAWTYLEDMQNSIDLVLTEVVMPGVSGISLLSRIMNHNICKNIPVIMMSSNDAMGTVFKCLSKGAVDFLVKPIRKNELKNLWQHVWRRCHSSSGSGSESGIQTQKCAKSKSGDESNNNNGSNDDDDDDGVIMGLNARDGSDNGSGTQAQSSWTKRAVEIDSPQAMSPDQLADPPDSTCAQVIHLKSDICSNRWLPCTSNKNSKKQKETNDDFKGKDLEIGSPRNLNTAYQSSPNERSIKPTDRRNEYPLQNNSKEAAMENLEESSVRAADLIGSMAKNMDAQQAARAANAPNCSSKVPEGKDKNRDNIMPSLELSLKRSRSTGDGANAIQEEQRNVLRRSDLSAFTRYHTPVASNQGGTGFMGSCSLHDNSSEAMKTDSAYNMKSNSDAAPIKQGSNGSSNNNDMGSTTKNVVTKPSTNKERVMSPSAVKANGHTSAFHPAQHWTSPANTTGKEKTDEVANNAAKRAQPGEVQSNLVQHPRPILHYVHFDVSRENGGSGAPQCGSSNVFDPPVEGHAANYGVNGSNSGSNNGSNGQNGSTTAVNAERPNMEIANGTINKSGPGGGNGSGSGSGNDMYLKRFTQREHRVAAVIKFRQKRKERNFGKKVRYQSRKRLAEQRPRVRGQFVRQAVQDQQQQGGGREAAADR
- binding (cEYFP-OsPRR1 (rice)): binds

B4: OsRR23 (protein, UniProt Q6K8X6 1-688)
chain: MRAAEERKGVVPAARRRDQFPVGMRVLAVDDDPVCLKVLETLLLRCQYHVTTTNQAAIALKMLRENRDMFDLVISDVHMPDMDGFKLLELVGLEMDLPVIMLSVNGETKTVLKGITHGACDYLLKPVRIEELRNIWQHVIRRKFSTRDRANLDFYEECNKPPNADSDHVHGHVTCGSPDQSGRPSKKRKEYCSEEEDEGEVNTQDIDDPSAPKKPRVVWSVELHRKFVAAVNQLGIDKAVPKRILELMNVEKLTRENVASHLQKYRLYLKRLSAVASQQVSIVAALGGRDPFLHMGGFEGLQGYQAFTSSAALSSFTPHGLLNSPRNNPAALGTQGVPASKSIQTMSGSHTLSHSINDANKYHLSLPGNQKGNLGQGLATSLGQTQMQQKWIHEETDDLSTILSGNGLSNGMSGTLQSVTSSPLLPQELAECTQAKIVSQPSIRTSSVSSEHIEGAVGVSSGLLESRVSQQSTIPLSGFSANGLLIHGSFNNTCANKLGGTSSSCAPARSSNDLMVARDTKGGASSFGGAMLLPPDTEQKYLNFGGGNGLKQKFDDRTADSLFDLKFVWSSVPSSQLASNIGAHHAMSQRWNNSSSNSSNIGARMIGQATSSGSTVIPQMKTDFLVSGDMAMPKNASDLSIPKLQSELSSSSCSFDGLLNSIVKVEKDDVTFSDDLGCGDFYSLGACI
- binding (OsRR3 (rice)): no binding
- binding (OsRR9 (rice)): no binding
- binding (OsRR10 (rice) [1]): no binding
- binding (OsRR2 (rice)): no binding

B5: OsPRR73 (protein, UniProt Q10N34 1-767)
chain: MGSACEAGTDEPSRDDVKGTGNGILENGHSHKPEEEEWRNGMGEDLPNGHSTPPEPQQTDEQKEHQVQIVRWERFLPVKTLRVLLVENDDSTRQVVSALLRKCCYEVIPAENGLHAWQCLEDLQNHIDLVLTEVVMPRLSGIGLLSKITSHKICKDIPVIMMSSNDSMGTVFKCLSKGAVDFLVKPIRKNELKNLWQHVWRRCHSSSGSGSESGIRTQKCTKPKVDDEYENNSGSNNDNEDDDDNDEDDDDLSVGHNARDGSDNGSGTQSSWTKRAVEIDSPQQMSPDQPSDLPDSTCAQVIHPTSEICSNRWLPTANKRSGKKHKENNDDSMGKYLEIGAPRNSSMEYQSSPREMSVNPTEKQHETLMPQSKTTRETDSRNTQNEPTTQTVDLISSIARSTDDKQVVRINNAPDCSSKVPDGNDKNRDSLIDMTSEELGLKRLKTTGSATEIHDERNILKRSDLSAFTRYHTTVASNQGGAGFGGSCSPQDNSSEALKTDSNCKVKSNSDAAEIKQGSNGSSNNNDMGSSTKNAITKPSSNRGKVISPSAVKATQHTSAFHPVQRQTSPANVVGKDKVDEGIANGVNVGHPVDVQNSFMQHHHHVHYYVHVMTQQQQQPSIERGSSDAQCGSSNVFDPPIEGHAANYSVNGSFSGGHNGNNGQRGPSTAPNVGRPNMETVNGIVDENGAGGGNGSGSGSGNDLYQNGVCYREAALNKFRQKRKVRNFGKKVRYQSRKRLAEQRPRIRGQFVRQSGQEDQAGQDEDR
- binding (OsPRR1 (rice)): no binding
